In all, about 18,000 sequences were measured (“TetR repression strength (sort-seq, GFP reporter)”: median about 0.23, highest 2% from about 0.68 on). The list shows a part of the results.

Chain of UniProt P04483 (P04483 whole entry): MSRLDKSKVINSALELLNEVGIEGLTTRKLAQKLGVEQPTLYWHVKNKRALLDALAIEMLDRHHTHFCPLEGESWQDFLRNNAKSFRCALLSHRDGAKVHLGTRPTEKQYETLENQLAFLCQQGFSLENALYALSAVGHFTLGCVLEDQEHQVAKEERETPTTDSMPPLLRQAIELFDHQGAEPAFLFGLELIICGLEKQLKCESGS

For the test, the target named is TetR (class B, Tn10) (UniProt P04483). Nature of the test: TetR repression strength (sort-seq, GFP reporter) (relative to tetO2 = 1); higher = stronger repression. Conditions: E. coli. Put shortly:
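Repression strength was calculated by subtracting the read-weighted mean bin from the top bin index plus one and dividing by the unaltered operator's value. The plasmid library was low-copy in E. coli SIG10-MAX, with eight randomized operator positions between a constitutive promoter and sfGFP and constitutive TetR. Cultures grew 5 h at 37 °C in LB containing 50 µg/mL chloramphenicol before 10^6 cells were sorted by FACS into 13 fluorescence bins, each sequenced on Illumina. Three independent transformations were averaged for members having ≥30 reads in all replicates and a CV ≤0.5.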
TCCCATATAGTAAGCGAGA showed a TetR repression strength of 0.207.
The figure for TCCCAGCCAGTTCACGAGA is 0.281.
For TCCCGGGAAGTTCGCGAGA the value was 0.104.
The figure for TCCCGTAAAGTTTGAGAGA is 0.298; for TCCCTTGTAGTATCGGAGA it is 0.257; for TCCCTCTCAGTTGAAGAGA it is 0.18.
In turn, TCCCGCCAAGTAAAAGAGA came in with a TetR repression strength of 0.298.
For TCCCCATAAGTGTTTGAGA the value was 0.242.
The figure for TCCCTACGAGTTTACGAGA is 0.0249; for TCCCCACTAGTCTTTGAGA it is 0.313.
The sequence TCCCCACCAGTGCGGGAGA displayed a TetR repression strength of 0.251.
Turning to TCCCGGACAGTCTCAGAGA, the TetR repression strength is 0.177.
For TCCCATTAAGTTCACGAGA the value was 0.242.
For TCCCCTATAGTACTGGAGA the value was 0.25.
For TCCCGGTCAGTTGACGAGA the value was 0.173.
As to TCCCGCTAAGTTATGGAGA, the TetR repression strength was found to be 0.266.
The figure for TCCCCACTAGTTGAGGAGA is 0.252; for TCCCGCCGAGTGGTGGAGA it is 0.0812.
The figure for TCCCCAAAAGTTAGAGAGA is 0.113; for TCCCAGCAAGTGGAGGAGA it is 0.194.
The figure for TCCCGTTTAGTTGTGGAGA is 0.0565.
As to TCCCCTTAAGTGTGAGAGA, the TetR repression strength was found to be 0.179.
As for TCCCGGCGAGTGTCGGAGA, the TetR repression strength stood at 0.211.
The figure for TCCCTCGGAGTATGAGAGA is 0.305; for TCCCCTGTAGTTCAGGAGA it is 0.293.
In turn, TCCCGGAGAGTTAAGGAGA came in with a TetR repression strength of 0.254.
The figure for TCCCATGCAGTAAGTGAGA is 0.178.
In turn, TCCCTTTGAGTGTAGGAGA gave a TetR repression strength of 0.251.
The figure for TCCCGCCTAGTCGAAGAGA is 0.29.
The figure for TCCCGAAGAGTGTTGGAGA is 0.268.
For the sequence TCCCGTGCAGTCTGTGAGA, the TetR repression strength was 0.0631.
The sequence TCCCGGTTAGTGGCGGAGA gave a TetR repression strength of 0.337.
On to TCCCTTAGAGTAAGAGAGA, for which the TetR repression strength turned out to be 0.0395.
Sequence TCCCAAATAGTGGTGGAGA yielded a TetR repression strength of 0.335.
TCCCCGGAAGTAGTGGAGA showed a TetR repression strength of 0.0942.
With TCCCCGACAGTGAAAGAGA, the TetR repression strength turned out to be 0.348.
For TCCCACTAAGTAGTGGAGA the value was 0.237.
Consider TCCCATATAGTTGATGAGA, for which the TetR repression strength came to 0.148.
As to TCCCTTTGAGTGCTTGAGA, the TetR repression strength was 0.114.
The figure for TCCCATGCAGTAGTTGAGA is 0.207; for TCCCGCTGAGTTCCCGAGA it is 0.217; for TCCCAGGGAGTCGATGAGA it is 0.103.
Take TCCCCATTAGTTCGAGAGA: the TetR repression strength was 0.287.
For TCCCCCAAAGTAGTTGAGA, the TetR repression strength stood at 0.29.
Sequence TCCCAATGAGTACCTGAGA had a TetR repression strength of 0.18.
The figure for TCCCACGCAGTCGTGGAGA is 0.349; for TCCCAGCCAGTTCCTGAGA it is 0.225; for TCCCTAGTAGTGTACGAGA it is 0.0432.
In the case of TCCCACATAGTGTCGGAGA, the TetR repression strength worked out at 0.0437.
For TCCCGCACAGTGATTGAGA the value was 0.42.
In the case of TCCCCGATAGTGATTGAGA, the TetR repression strength was 0.47.
The figure for TCCCCGGCAGTACAGGAGA is 0.235; for TCCCACACAGTCGGGGAGA it is 0.191.
TCCCGCTTAGTAAGGGAGA came in with a TetR repression strength of 0.271.
The figure for TCCCACATAGTGCAAGAGA is 0.368; for TCCCGAGGAGTGTTGGAGA it is 0.271; for TCCCGCGCAGTCTTAGAGA it is 0.28.
For TCCCCGTCAGTTTGCGAGA the value was 0.741.
For TCCCCCGCAGTGTGGGAGA, the TetR repression strength came out at 0.15.
For TCCCGATCAGTGAAAGAGA the value was 0.657.
For TCCCGCAAAGTTGTCGAGA the value was 0.48.
For TCCCGTGGAGTTCGAGAGA the value was 0.298.
TCCCTGAAAGTGACGGAGA had a TetR repression strength of 0.506.
For TCCCTTAAAGTGAGGGAGA the value was 0.355.
The figure for TCCCCTGCAGTTGAAGAGA is 0.214; for TCCCGCGAAGTGGCGGAGA it is 0.168.
The figure for TCCCGGCGAGTTGGCGAGA is 0.195; for TCCCTGTAAGTATGTGAGA it is 0.214.
TCCCGATGAGTATTCGAGA: the TetR repression strength was 0.177.
In the case of TCCCTTTCAGTAATTGAGA, the TetR repression strength was determined as 0.544.
The figure for TCCCCCGGAGTAAGAGAGA is 0.0553; for TCCCCATTAGTCTATGAGA it is 0.187.
In turn, TCCCGTCAAGTTATAGAGA registered a TetR repression strength of 0.233.
The figure for TCCCAATCAGTGTCTGAGA is 0.513; for TCCCTGTGAGTCGGGGAGA it is 0.28.
As to TCCCGCGGAGTTGGGGAGA, the TetR repression strength is 0.299.
The figure for TCCCACTGAGTATTCGAGA is 0.224.
The figure for TCCCATTTAGTCGCGGAGA is 0.755; for TCCCCGCGAGTCCTCGAGA it is 0.346.
TCCCCACCAGTTATGGAGA displayed a TetR repression strength of 0.321.
The figure for TCCCGATTAGTGGCTGAGA is 0.269; for TCCCGCATAGTAGGTGAGA it is 0.317.
In turn, TCCCAATCAGTTCTAGAGA came in with a TetR repression strength of 0.396.
With TCCCGTTCAGTTCACGAGA, the TetR repression strength stood at 0.159.
Regarding TCCCGGAGAGTTACTGAGA, the TetR repression strength was 0.419.
The sequence TCCCGTTAAGTGAAGGAGA returned a TetR repression strength of 0.137.
For TCCCTGACAGTGTTAGAGA the value was 0.216.
In turn, TCCCGAGCAGTGGATGAGA registered a TetR repression strength of 0.154.
In the case of TCCCGGAAAGTGGAGGAGA, the TetR repression strength came to 0.175.
TCCCTGGGAGTATAAGAGA: the TetR repression strength came to 0.161.
Take TCCCCGATAGTACGCGAGA: the TetR repression strength amounted to 0.172.
TCCCTATGAGTGTGAGAGA yielded a TetR repression strength of 0.252.
For TCCCTTTAAGTCCTTGAGA the value was 0.207; for TCCCGAGGAGTTTCTGAGA, 0.509; for TCCCCCGCAGTCTGCGAGA, 0.125.
For TCCCGTGTAGTAGGAGAGA the value was 0.17.
The figure for TCCCTAAGAGTGGGTGAGA is 0.129.
In the case of TCCCGGAGAGTTCTGGAGA, the TetR repression strength turned out to be 0.193.
For the sequence TCCCGAGCAGTAGTAGAGA, the TetR repression strength was 0.378.
As for TCCCCAAGAGTTAGCGAGA, the TetR repression strength was found to be 0.305.
TCCCGAGGAGTTAGAGAGA: the TetR repression strength is 0.141.
In the case of TCCCACGTAGTCTACGAGA, the TetR repression strength is 0.348.

Values taken from a collection of fitness landscapes (doi:10.1038/s41467-024-54723-y).
